# PubChem BioAssay (NCI)
# The source holds several records for some structures; these can differ, active in one and inactive in another.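 96-well plates, one dose, 48 hours. Percent growth reported; active if below 10.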 Certain results were filed several times, with different values. They are shown here; other results are not. An entry can have further records. The screen tested this drug many times, at the concentration stated with the values; each value is one run. Brackets with × stand for listed records that agree.
# System: MALME-3M melanoma
# Assay: NCI-60 one-dose screen, 48 h (100 = growth as untreated, 0 = no growth, -100 = all killed)
compound,measurement,setting,value
COc1cccc2c1C(=O)c1c(O)c3c(c(O)c1C2=O)C[C@@](O)(C(=O)CO)C[C@@H]3OC1CC(N)C(O)C(C)O1 (stereo not given in full),growth,"0.25 µM, runs of 2012","inactive: 15.3, 17.3, 32.7, 30.9, 41.1, 43.3, 11.3, 10.5, 14.4, 23.3, 18.1, 11.7, 17.6, 19.3, 34, 35.2 (2×), 34.5, 30.1 (2×), 35.4, 22.7, 42.7, 29.5, 25.1, 11.2 (2×), 18, 22, 27.2, 16.6, 31.5, 30.3, 28.6, 30.8, 34.7, 27.8, 39.1, 25.5, 30.7, 33.8, 20.1, 34.1, 42.8, 40.1, 36.9, 19.2, 12.5, 23, 18.4, 16.2, 59.5, 59.2, 11.6, 17, 39.8, 13.6% and active: -11.1, 7.91, 4.73, 8.54, 0.498, 5.72, -1.12, 7.9, 6.21, 6.28, 7.54%"
same,growth,"0.25 µM, runs of 2013","inactive: 13.3, 17.5, 12.4, 33.1 (2×), 37.6, 34.2, 31.2, 28.5, 40.5, 40.1 (2×), 41.2, 33, 26.4, 28.4, 40.9, 37.1, 20.5, 37.5, 56.6, 52.7, 41.6, 33.8, 56.4, 51.2 (2×), 36.7, 26.9, 41.5, 39.9, 37.7, 29.4, 38.8, 41.7, 44.4, 43.9, 39.7, 30.3, 25.3, 11.2, 30.8, 35.4, 21.6 (2×), 10.3, 11.7, 12, 11.5, 30.7, 25.2, 23.6, 21.1, 13.7, 22.9, 28.9% and active: -8.83, -10.5, 3.37, 9.4, -7.78%"
same,growth,"0.25 µM, runs of 2014","inactive: 13.7, 16.8, 25 (2×), 12.1, 15.1, 17.9, 22.4, 19, 14.3, 24.3, 26.4 (3×), 13.6, 23.6, 22.5, 20.3, 18 (2×), 23.3, 27.8, 24.6 (2×), 27.5, 22.1, 19.1, 22.2, 33.3, 20.4, 21.8, 25.2, 21.1, 11.2 (2×), 12.2, 28.2, 26.6, 22.6, 16.4 (2×), 11, 16.1, 14.9, 18.7, 20.9, 19.7, 15.7, 24.2, 13.2, 16, 26.1, 21.3, 15.5% and active: -2.58, 6.69, 9.37, 3.19, -9.37, -5.72, 9.91, 2.26, 6.41, 6.32, 5.54, 8.65, 7.06 (2×), 8.19, 8.57, 3.28, 7.68, 9.93%"
same,growth,"0.25 µM, runs of 2015","inactive: 26.3, 24.2, 25.6, 22.7, 17.8, 17.5 (3×), 24.9, 20 (2×), 20.6, 22.2, 16.7, 12.6, 30.3, 14.4, 13.7 (2×), 10.6, 15.2, 10.1, 12.5, 10.4, 21, 12.4, 13.3, 18.7, 12.1, 20.3, 28.5, 18, 20.4, 36.7, 14.5, 31.2, 21.8 (2×), 10.3, 17.1, 11.8, 25.1, 15, 20.2, 13.4, 21.1 (2×), 26.5, 32.7, 21.5, 26.4, 32.5, 25.8, 35.2, 40.2, 35.4, 33.4, 41.5, 35.7% and active: 6.78, -1.87, -0.498, -3.49, -6.53, -10.6 (2×), -8.58, -1.58, 6.39, 9.8, 8.38, 7.84, 6.97, -0.337, 2.42, 3.66, 7.09, -1.32, 6.28, 9.6, 0.844, -7.31, 4.58, 7.03, 9.54, -3.15, 9.87%"
same,growth,"0.25 µM, runs of 2016","inactive: 17.9, 31, 29.8, 28.9, 41.3, 19.8, 17.8, 19.5 (2×), 10.9 (2×), 14.4, 27.1, 19.9, 18 (2×), 20.5, 20.2, 11.9, 17.6, 16.5 (2×), 11.7, 17.1 (3×), 15, 13.9, 14.3, 25.1, 12.5, 20.9, 15.6, 24.8, 14.5, 21.4, 22.1, 22.7 (2×), 18.8, 26.8, 21, 26.9, 28.1, 25.2, 29.5 (2×), 29.9, 34.7, 25.3, 28.7, 29.4, 27, 30.2, 30.8, 18.2, 16.4, 30.3, 21.6, 11.2, 21.2, 28, 21.3, 26.2, 25.8, 24.9, 31.3, 32.4, 32.3% and active: 1.72, 2.47, -3.57, 7.01, 6.65, -6.15, 8.09, 4.17, 9.11, 2.29, -3.64, -2.72, 4.21, -2.46, 9, -3.89%"
same,growth,"0.25 µM, runs of 2017","inactive: 34.4, 38.1, 31.5 (2×), 31.3, 27.9, 13.6, 17.8, 19.3 (2×), 10.9, 14.8, 12.8, 19.1 (2×), 24, 21.8 (2×), 22.2, 20.3 (2×), 28.1 (2×), 21, 27, 19.8, 23.8, 33, 25.8 (2×), 14.5, 12.7, 22, 23.6, 21.7, 18.1, 19.2, 20.5, 25.2, 26.6, 22.3 (2×), 23.4, 32.2, 35.4, 38.9, 27.7, 37.2, 28.2, 33.8, 28.7, 30.8, 27.2, 33.6, 42.7, 23.2, 27.1, 31.4, 18.8, 25, 27.3, 27.6, 22.1, 19.4, 34, 26.8% and active: -0.125, 2.34, -1.37, -3.89, 3.9, -1.15, 8.8, -0.237, 4.7, 6.7, 7.78, 5.47, 1.15, -1.1%"
same,growth,"0.25 µM, runs of 2018","inactive: 44.9, 48.5, 35.4, 37, 44.6, 45.8, 37.5, 39.3, 41.8, 39.9, 42.8, 43, 49, 49.7, 52, 42.9, 45.1, 42, 46.2, 28.6, 21.1, 23.2, 24.2, 27.2, 25.6, 21.5, 29.2, 32.5, 30.6, 30.9 (2×), 28.3, 28.8, 16.6, 31.7, 34.8, 15.2, 22.7, 17.8, 26.1, 25.3, 19.7, 20.5, 27.4, 27.9, 21.7, 30.5, 25.8, 22.8, 31.4, 20.2, 22.3, 29.8, 31% and active: 8%, 6.4%, 6.98%"
same,growth,"0.25 µM, runs of 2019","active: 3.63, 5.5, 1.91, 9.62, 6.83, 8.18, 7.58, 6.33% and inactive: 10.3, 22.9, 17.8 (2×), 19, 18.9, 19.3, 30.2, 32.8, 32.1 (2×), 20.9, 18.2, 20.6, 19.4 (2×), 25.3, 12.5, 16.4 (2×), 18.6, 20.3 (3×), 19.2, 17.9 (2×), 18.3, 19.9, 21.5, 28.6, 30.7, 28.3, 29.4, 14.3, 11.2, 10, 14.6, 14.7%"
same,growth,"0.25 µM, runs of 2020","inactive: 15.4, 18.1, 29.2, 21.3, 22.9, 20.3, 13.3, 11.8, 16.3, 12, 15.8, 25.6, 25.1, 37.9, 27.2, 33.7, 43.1, 33.8, 42.3, 39.3, 40.1, 41.2, 44% and active: 5.74%, 7.07%, 8.06%"
same,growth,"0.25 µM, runs of 2021","inactive: 51.5, 60.8, 22.1, 30.3, 28.4, 27.9, 28.9, 19.1, 21.3, 21.4, 19.5, 28.1, 21.1, 26.3, 20.6, 24.2, 24.5, 27.1, 22.7 (2×), 22.2 (2×), 27.3, 18.4, 13.2, 15.2, 20.1, 14.9, 20.5, 17.3, 16.8, 21.7, 20.3, 27.8, 27.2, 24.1, 26.1, 14.6, 36.4, 21.8, 19.8% and active: 7.24, 6.19, 7.59, 6.65, 3.8, 8.25, -2, 9.61, -0.4, -1.15, 2.82, -10.1, 7.22, 2.77%"
same,growth,"0.25 µM, runs of 2022","active: -70.2, -60.8, -70.4, -20.7, 8.51, 6.45, 1.61, 9.19, 1.14, -0.823, 9.15% and inactive: 19, 22.3, 17, 27, 20.2, 24.3, 10.1, 44.4, 55.4, 50.9, 57.1, 20.9, 23.2, 18.2, 24.8%"
same,growth,"25 µM, runs of 1991","active: -84.7, -84.6, -84.5, -96.3, -90.7, -69.6, -92.2, -98.4, -61.8, -79, -77.4, -90.8, -85.1, -56, -95.5, -81.1%"
same,growth,"25 µM, runs of 1992","active: -77.4, -85.7, -100 (16×), -69.1, -90.7 (2×), -88.7 (3×), -80, -67, -79.9, -88.9, -85.8, -86.9, -90.2, -60.2, -94.8, -87.4, -89.6, -83.7, -82.2, -89.3, -99.9 (4×), -96.2, -96.6, -89.7, -95.9 (3×), -94, -96 (4×), -49.6, -91.1, -98.1 (2×), -67.6, -77.2, -97.5, -98.2, -96.3 (2×), -95.6 (3×), -81.1, -90.5, -75.7, -98.5 (2×), -99.6 (2×), -95.3 (2×), -98.6 (2×), -96.7, -90.9, -48.2, -92.9, -99.5 (2×), -99.7, -93.6 (3×), -93.7, -92.2 (2×), -98.8, -93.8, -93, -95.2, -91.3, -95, -86.8, -97, -92.6, -94.9, -85.2, -97.9, -93.2, -99.3, -98.9, -99.4, -86.3, -99.8, -96.9, -51.2, -91.5, -89.9, -98.4, -94.6, -81.9, -77.5, -93.5%"
same,growth,"25 µM, runs of 1993","active: -64.6, -94.9, -92.8, -95.6, -27.8, -95.5, -89.7, -94.1, -76.3, -71.8, -64.4, -20.6, -84.8 (2×), -73.9, -93.8, -74.6, -91.5, -85.9, -14.1, -71.9, -84.2, -80.7, -88.5, -81.8, -66.1, -67.3, -57.1, -76.5, -58.8, -84.3, -74.8, -92.7, -94.6, -65.2, -66.5, -42.8, -98, -75.1, -85.7, -86, -98.8, -94.5%"
same,growth,"25 µM, runs of 1994","active: -19.5, -98, -84.7, -85.7, -95.1, -72.6, -83.3, -90.8, -87.6, -51.1, -97.3, -74.4, -96.5, -88.2, -81.3, -68.6, -48.9, -50.8, -88.6, -75.4, -96.4, -98.2, -100, -47, -50, -94.9, -79.8, -97.6, -67.3, -91.5, -85.8% and inactive: 90.7%"
